# Data published in the supplement of paper PMC3334620.
# Whole data set: some 33,000 sequences, median “E-score (-0.5 to 0.5)” near -0.016, cut for the highest 2% near 0.32. Some of the results follow.
# Molecular target: T1, Stp1 (UniProt B3LFK1)
# T1 sequence: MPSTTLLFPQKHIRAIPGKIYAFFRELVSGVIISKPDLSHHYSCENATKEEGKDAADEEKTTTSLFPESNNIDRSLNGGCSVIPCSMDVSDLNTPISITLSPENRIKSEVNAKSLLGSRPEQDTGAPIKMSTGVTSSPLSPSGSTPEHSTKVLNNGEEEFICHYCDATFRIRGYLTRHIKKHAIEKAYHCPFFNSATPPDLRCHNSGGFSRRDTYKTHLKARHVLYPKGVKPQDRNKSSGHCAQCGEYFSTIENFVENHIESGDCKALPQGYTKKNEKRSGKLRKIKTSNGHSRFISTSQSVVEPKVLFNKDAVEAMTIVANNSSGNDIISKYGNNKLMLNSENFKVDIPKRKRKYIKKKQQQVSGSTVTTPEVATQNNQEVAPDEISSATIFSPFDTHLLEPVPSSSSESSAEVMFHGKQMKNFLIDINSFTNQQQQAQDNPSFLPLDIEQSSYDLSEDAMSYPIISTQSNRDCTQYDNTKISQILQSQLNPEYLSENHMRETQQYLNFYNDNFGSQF
# Experiment: PBM E-score (8-mer binding enrichment) (E-score (-0.5 to 0.5)); higher = stronger / more preferred TF binding; most listed sequences are background and not binding sites
# Settings: protein concentration: 200 nM; construct: GST-full length
# Method in brief: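 Each ungapped eight-base word and its reverse complement, pooled, received an E-score from the Universal PBM Analysis Suite. Underlying scans, normalised with masliner, recorded fluorescent anti-GST bound to GST-tagged yeast transcription factors. These were applied at about 100-200 nM to universal all-10-mer Agilent arrays double-stranded by primer extension.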
row,Sequence,PBM E-score
1,AGGCTCAG,-0.0826
2,CCTAGGTA,-0.179
3,CCCAGACG,-0.255
4,CACGGGAA,0.0307
5,CCCCCACC,-0.39
6,ATACTCTC,-0.0667
7,GAGAACCA,-0.0465
8,ACTCTGAG,-0.046
9,CCCCTTTA,-0.146
10,CGGTCGTC,-0.23
11,ACCATGGT,-0.22
12,CCTCATGC,-0.149
13,ACAGCCAC,0.102
14,CACCCTGG,-0.39
15,ATTGCAGA,0.0253
16,CCGTAACC,0.0805
17,AGGGCACT,0.239
18,GCTACGCC,0.0422
19,GAGGGAAA,-0.208
20,ATCTCTTG,-0.137
21,CTCCCATA,-0.319
22,AATCCATG,0.0212
23,ACGCGCCG,0.412
24,AGAGGAGC,-0.119

row,Sequence,PBM E-score
1,CCGCGAAC,-0.0404
2,AACAGTTA,0.12
3,ACTTCATG,-0.118
4,CACCCGTA,-0.0542
5,AAATTCAT,0.0395
6,ATCGTCCG,0.00927
7,CTTGGACA,-0.051
8,AAAAACAT,0.0934
9,AGCCCTAT,0.0437
10,CTTACACC,-0.0813
11,AATAGGTG,-0.102
12,ACCCCTAC,-0.318
13,ACACCCGC,0.0105
14,TAGTCCGA,-0.0522
15,GCTCAGCA,-0.0239
16,GACCAAAC,-0.0249
17,AAGTATTA,-0.0297
18,AAACTTTA,0.0741
19,CACAACAA,0.163
20,AATCTGGT,0.0301
21,CGTACTAC,0.0146
22,AGCCGGAT,0.0422
23,CCTGAGGA,-0.185
24,CAAGTGGA,-0.131

row,Sequence,PBM E-score
1,AGGAAGCA,-0.168
2,AGATTCAT,-0.0462
3,AGTTTTTA,0.138
4,CAGTCGCC,0.00112
5,TGAACCCA,-0.124
6,GAAACTTA,0.132
7,CGTAGAAA,0.0902
8,GCTTCGAC,-0.0951
9,ACGTAGGG,-0.203
10,AGCCTTGC,0.325
11,ACTATGTC,-0.0832
12,AGTCAGGG,-0.259
13,ATAGGCTG,-0.186
14,AAGGCGTA,0.234
15,CGGTTCGC,-0.0225
16,CCAAATGG,0.0952
17,GTGGTTGA,-0.00686
18,TGCGGCCA,0.233
19,AGATGGAA,-0.00795
20,AATTTAGT,0.0973
21,CGAGCAGC,0.0563
22,GAGGATCA,0.0371
23,ATTAAGCA,0.00694
24,CAGTGCTC,-0.165

row,Sequence,PBM E-score
1,AAAACCTC,0.0139
2,GAGGGAGA,-0.223
3,CGCCCTGC,0.346
4,TAACATGA,0.0428
5,TCGGTGAA,-0.143
6,AAGCTTAC,-0.0335
7,CATTGGAC,-0.155
8,AGCCTACG,0.132
9,CGTAAATC,0.079
10,TGAGGCCA,-0.0923
11,CGAGGTTA,-0.132
12,CCTTTTTA,0.015
13,ACTGTGCA,0.0246
14,CGGGGTGA,-0.0472
15,AGCGAGGC,0.197
16,ATAGGATG,0.0575
17,AATCTATA,0.186
18,AAGCGTAC,-0.161
19,CGCAACCG,-0.0368
20,GATTTAGA,0.0668
21,CAGCTTCG,-0.156
22,GCGAGTTA,0.104
